# The list shows a part of the results.
# B1: AAL (Aleuria aurantia) (protein)
# chain: MPTEFLYTSKIAAISWAATGGRQQRVYFQDLNGKIREAQRGGDNPWTGGSSQNVIGEAKLFSPLAAVTWKSAQGIQIRVYCVNKDNILSEFVYDGSKWITGQLGSVGVKVGSNSKLAALQWGGSESAPPNIRVYYQKSNGSGSSIHEYVWSGKWTAGASFGSTVPGTGIGATAIGPGRLRIYYQATDNKIREHCWDSNSWYVGGFSASASAGVSIAAISWGSTPQIRVYWQKGREELYEAAYGGSWNTPGQIKDASRPTPSLPDTFIAANSSGNIDISVFFQASGVSLQQWQWISGKGWSIGAVVPTGTPAGW
# Key:
# Test in all cases: glycan array binding signal (z-score within array); higher = stronger binding
# Conditions in all cases: glycan notation: IUPAC condensed, linker removed; mutation: N224Q
# [1] = target: Neu5Ac(a2-6)Gal(b1-4)GlcNAc(b1-6)GalNAc
# How it was run: (§1)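 The binding signal is a Z-score computed within each array and averaged over linkers. Arrays of the same protein sequence at different concentrations or buffers were also averaged together. Data originate from 3228 arrays in the Consortium for Functional Glycomics database, kept only where the protein sequence was available.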
# [2] = target: Neu5Ac(a2-6)Gal(b1-4)GlcNAc(b1-6)[Gal(b1-3)GlcNAc(b1-3)]Gal(b1-4)Glc
# How it was run: as §1
# [3] = target: Neu5Ac(a2-6)Gal(b1-4)GlcNAc(b1-6)[Gal(b1-3)]GalNAc
# How it was run: as §1
# [4] = target: Neu5Ac(a2-6)Gal(b1-4)GlcNAc6S
# How it was run: as §1
# Neu5Ac(a2-6)GalNAc = target: Neu5Ac(a2-6)GalNAc
# How it was run: as §1
# [5] = target: Neu5Ac(a2-6)GalNAc(b1-4)GlcNAc
# How it was run: as §1
# [6] = target: Neu5Ac(a2-6)GalNAc(b1-4)GlcNAc6S
# How it was run: as §1
# [7] = target: Neu5Ac(a2-6)GlcNAc(b1-4)GlcNAc
# How it was run: as §1
# [8] = target: Neu5Ac(a2-6)GlcNAc(b1-4)GlcNAc(b1-4)GlcNAc
# How it was run: as §1
# Neu5Ac(a2-8)Neu5Ac = target: Neu5Ac(a2-8)Neu5Ac
# How it was run: as §1
# [9] = target: Neu5Ac(a2-8)Neu5Ac(a2-3)Gal(b1-3)GalNAc(b1-4)[Neu5Ac(a2-3)]Gal(b1-4)Glc
# How it was run: as §1
# [10] = target: Neu5Ac(a2-8)Neu5Ac(a2-3)Gal(b1-3)GalNAc(b1-4)[Neu5Ac(a2-8)Neu5Ac(a2-3)]Gal(b1-4)Glc
# How it was run: as §1
# [11] = target: Neu5Ac(a2-8)Neu5Ac(a2-3)Gal(b1-4)Glc
# How it was run: as §1
# [12] = target: Neu5Ac(a2-8)Neu5Ac(a2-3)Gal(b1-4)GlcNAc
# How it was run: as §1
# [13] = target: Neu5Ac(a2-8)Neu5Ac(a2-3)[Gal(b1-3)GalNAc(b1-4)]Gal(b1-4)Glc
# How it was run: as §1
# [14] = target: Neu5Ac(a2-8)Neu5Ac(a2-3)[GalNAc(b1-4)]Gal(b1-4)Glc
# How it was run: as §1
# [15] = target: Neu5Ac(a2-8)Neu5Ac(a2-8)Neu5Ac
# How it was run: as §1
# [16] = target: Neu5Ac(a2-8)Neu5Ac(a2-8)Neu5Ac(a2-3)Gal(b1-4)Glc
# How it was run: as §1
# [17] = target: Neu5Ac(a2-8)Neu5Ac(a2-8)Neu5Ac(a2-3)[Gal(b1-3)GalNAc(b1-4)]Gal(b1-4)Glc
# How it was run: as §1
# [18] = target: Neu5Ac(a2-8)Neu5Ac(a2-8)Neu5Ac(a2-3)[GalNAc(b1-4)]Gal(b1-4)Glc
# How it was run: as §1
# [19] = target: Neu5Ac(a2-8)Neu5Ac(a2-8)Neu5Ac(a2-8)Neu5Ac(a2-3)[GalNAc(b1-4)]Gal(b1-4)Glc
# How it was run: as §1
# [20] = target: Neu5Ac(a2-8)Neu5Gc(a2-3)Gal(b1-4)GlcNAc
# How it was run: as §1
# [21] = target: Neu5Ac(b2-6)Gal(b1-4)GlcNAc
# How it was run: as §1
# Neu5Ac(b2-6)GalNAc = target: Neu5Ac(b2-6)GalNAc
# How it was run: as §1
# [22] = target: Neu5Ac9Ac(a2-3)Gal(b1-3)GlcNAc
# How it was run: as §1
# [23] = target: Neu5Ac9Ac(a2-3)Gal(b1-4)GlcNAc
# How it was run: as §1
# [24] = target: Neu5Ac9Ac(a2-6)Gal(b1-4)GlcNAc
# How it was run: as §1
# [25] = target: Neu5Gc(a2-3)Gal(b1-3)GlcNAc
# How it was run: as §1
# [26] = target: Neu5Gc(a2-3)Gal(b1-3)[Fuc(a1-4)]GlcNAc
# How it was run: as §1
# Neu5Gc(a2-3)Gal(b1-4)Glc = target: Neu5Gc(a2-3)Gal(b1-4)Glc
# How it was run: as §1
# [27] = target: Neu5Gc(a2-3)Gal(b1-4)GlcNAc
# How it was run: as §1
# [28] = target: Neu5Gc(a2-3)Gal(b1-4)GlcNAc(b1-3)Gal(b1-4)GlcNAc(b1-2)Man(a1-3)[Neu5Gc(a2-3)Gal(b1-4)GlcNAc(b1-3)Gal(b1-4)GlcNAc(b1-2)Man(a1-6)]Man(b1-4)GlcNAc(b1-4)GlcNAc
# How it was run: as §1
# [29] = target: Neu5Gc(a2-3)Gal(b1-4)[Fuc(a1-3)]GlcNAc
# How it was run: as §1
# [30] = target: Neu5Gc(a2-6)Gal(b1-4)GlcNAc
# How it was run: as §1
# Neu5Gc(a2-6)GalNAc = target: Neu5Gc(a2-6)GalNAc
# How it was run: as §1
# [31] = target: Neu5Gc(a2-8)Neu5Ac(a2-3)Gal(b1-4)GlcNAc
# How it was run: as §1
# [32] = target: Neu5Gc(a2-8)Neu5Gc(a2-3)Gal(b1-4)GlcNAc
# How it was run: as §1
# [33] = target: Neu5Gc(a2-8)Neu5Gc(a2-3)Gal(b1-4)GlcNAc(b1-3)Gal(b1-4)GlcNAc
# How it was run: as §1
binder,measurement,setting,value
B1,glycan array binding signal (z-score),[1],-0.305
same,glycan array binding signal (z-score),[2],-0.308
same,glycan array binding signal (z-score),[3],-0.307
same,glycan array binding signal (z-score),[4],-0.32
same,glycan array binding signal (z-score),Neu5Ac(a2-6)GalNAc,-0.334
same,glycan array binding signal (z-score),[5],-0.323
same,glycan array binding signal (z-score),[6],-0.308
same,glycan array binding signal (z-score),[7],-0.327
same,glycan array binding signal (z-score),[8],-0.283
same,glycan array binding signal (z-score),Neu5Ac(a2-8)Neu5Ac,-0.323
same,glycan array binding signal (z-score),[9],-0.313
same,glycan array binding signal (z-score),[10],-0.306
same,glycan array binding signal (z-score),[11],-0.322
same,glycan array binding signal (z-score),[12],-0.337
same,glycan array binding signal (z-score),[13],-0.313
same,glycan array binding signal (z-score),[14],-0.318
same,glycan array binding signal (z-score),[15],-0.324
same,glycan array binding signal (z-score),[16],-0.325
same,glycan array binding signal (z-score),[17],-0.316
same,glycan array binding signal (z-score),[18],-0.313
same,glycan array binding signal (z-score),[19],-0.317
same,glycan array binding signal (z-score),[20],-0.317
same,glycan array binding signal (z-score),[21],-0.314
same,glycan array binding signal (z-score),Neu5Ac(b2-6)GalNAc,-0.326
same,glycan array binding signal (z-score),[22],-0.335
same,glycan array binding signal (z-score),[23],-0.306
same,glycan array binding signal (z-score),[24],-0.331
same,glycan array binding signal (z-score),[25],-0.325
same,glycan array binding signal (z-score),[26],-0.216
same,glycan array binding signal (z-score),Neu5Gc(a2-3)Gal(b1-4)Glc,-0.313
same,glycan array binding signal (z-score),[27],-0.328
same,glycan array binding signal (z-score),[28],-0.29
same,glycan array binding signal (z-score),[29],0.052
same,glycan array binding signal (z-score),[30],-0.32
same,glycan array binding signal (z-score),Neu5Gc(a2-6)GalNAc,-0.327
same,glycan array binding signal (z-score),[31],-0.317
same,glycan array binding signal (z-score),[32],-0.317
same,glycan array binding signal (z-score),[33],-0.319

# — the supplement of paper PMC8728848
